In all, about 81,000 sequences were measured (“one-hybrid fitness for binding NBS DNA”: median about -0.1, highest 2% from about 0.36 on). The list shows a part of the results.

195 variants from a collection of fitness landscapes (doi:10.1016/j.celrep.2020.107928) can be followed below.

B1: Caulobacter ParB omega fusion; a variant is named by its letters at X, in order, B8GW30 (parent)
chain: MESVVVGEPGMSEGRRGLGRGLSALLGEVDAAPAQAPGEQLGGSREAPIEILQRNPDQPRRTFREEDLEDLSNSIREKGVLQPILVRPSPDTAGEYQIVAGERAWRAAQRAGLKTVPIMVRELDDLAVLEIGIIENVQRADLNVLEEALSYKVLMEKFERTQENIAQTIGKSXSHVANXMRLLXLPDEVQSYLVSGELTAXHARAIAAAADPVALAKQIIEGGLSVRETEALARKAPNLSAGKSKGGRPPRVKDTDTQALESDLSSVLGLDVSIDHRGSTGTLTITYATLEQLDDLCNRLTRGI

Variants of B1 are the subject of the assay. Put plainly: one-hybrid fitness for binding NBS DNA (the Noc-binding site; scaled: cognate 1, non-cognate 0); higher = stronger binding. Conditions: with NBS DNA site. A digest of the protocol: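 On M9-minus-histidine containing 0.1 mM IPTG and 5 mM 3-AT, E. coli USO cells with a HIS3 reporter, site 19 bp from the promoter, grew 48 hours at 37°C to select Caulobacter ParB libraries randomised at four specificity codons. Plasmids from before and after were Illumina-sequenced, with three replicate libraries pooled and variants under 10 reads left out. Fitness is the log change in variant-to-wild-type read ratio, rescaled against cognate and non-cognate.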
As to KLWL, the “one-hybrid fitness for binding NBS DNA” value is ≤ 0.2.

In the case of YMVR, the “one-hybrid fitness for binding NBS DNA” value is ≤ 0.2. KRTM: the “one-hybrid fitness for binding NBS DNA” value is ≤ 0.2.

With KPGL, the “one-hybrid fitness for binding NBS DNA” value was ≤ 0.2. As for KIKT, the figure is ≤ 0.2; as for HASL, ≤ 0.2; as for CGKV, ≤ 0.2. The result for IHTR reads ≤ 0.2; that for DVPG, ≤ 0.2. On to TENN, for which the “one-hybrid fitness for binding NBS DNA” value was ≤ 0.2. GTDC: the “one-hybrid fitness for binding NBS DNA” value was ≤ 0.2. The result for NVIT reads ≤ 0.2. Consider NCVL, for which the “one-hybrid fitness for binding NBS DNA” value is ≤ 0.2.

As for RMIS, the “one-hybrid fitness for binding NBS DNA” value amounted to 0.238. For IDSC, the “one-hybrid fitness for binding NBS DNA” value was ≤ 0.2.

For TCNM, the “one-hybrid fitness for binding NBS DNA” value is ≤ 0.2. As for WGGV, the figure is ≤ 0.2; as for ITYC, ≤ 0.2. Regarding YTTM, the “one-hybrid fitness for binding NBS DNA” value was ≤ 0.2. As for MRHR, the figure is ≤ 0.2; as for RCWV, ≤ 0.2. As for DQAG, the figure is ≤ 0.2; as for TSGL, ≤ 0.2. Consider PGYP, for which the “one-hybrid fitness for binding NBS DNA” value is ≤ 0.2. The result for PAYV reads ≤ 0.2; that for ADQI, ≤ 0.2; that for RVLH, ≤ 0.2.

Turning to LFYG, the “one-hybrid fitness for binding NBS DNA” value is ≤ 0.2. In the case of ASIF, the “one-hybrid fitness for binding NBS DNA” value is ≤ 0.2. With VTFT, the “one-hybrid fitness for binding NBS DNA” value was ≤ 0.2. Regarding DLEE, the “one-hybrid fitness for binding NBS DNA” value was ≤ 0.2. For the variant TQLI, the “one-hybrid fitness for binding NBS DNA” value was ≤ 0.2. Consider KCCR, for which the “one-hybrid fitness for binding NBS DNA” value is ≤ 0.2. As for TVWC, the figure is ≤ 0.2; as for RCDP, ≤ 0.2. For the variant MNQG, the “one-hybrid fitness for binding NBS DNA” value is ≤ 0.2.

With AKFG, the “one-hybrid fitness for binding NBS DNA” value is ≤ 0.2. On to HNFP, for which the “one-hybrid fitness for binding NBS DNA” value was ≤ 0.2. As for FYST, the figure is ≤ 0.2; as for PVKL, ≤ 0.2; as for CRGY, ≤ 0.2. The result for WYDR reads ≤ 0.2; that for SSKC, ≤ 0.2; that for CCPV, ≤ 0.2.

With NSPN, the “one-hybrid fitness for binding NBS DNA” value is ≤ 0.2. As for DITK, the “one-hybrid fitness for binding NBS DNA” value is ≤ 0.2. For the variant LKMT, the “one-hybrid fitness for binding NBS DNA” value was ≤ 0.2. Take KGNF: the “one-hybrid fitness for binding NBS DNA” value was ≤ 0.2. Turning to LHQP, the “one-hybrid fitness for binding NBS DNA” value is ≤ 0.2. Regarding RQVY, the “one-hybrid fitness for binding NBS DNA” value is ≤ 0.2.

For PTAP, the “one-hybrid fitness for binding NBS DNA” value is ≤ 0.2. Take CFGR: the “one-hybrid fitness for binding NBS DNA” value is ≤ 0.2. The result for QMLA reads 0.22. As for RMTM, the figure is ≤ 0.2. As for TLMC, the figure is ≤ 0.2; as for GNLC, ≤ 0.2; as for QATK, ≤ 0.2. Take RTKG: the “one-hybrid fitness for binding NBS DNA” value was 0.223. The result for DHRW reads ≤ 0.2; that for FDLT, ≤ 0.2; that for CTMM, ≤ 0.2. The result for DWAS reads ≤ 0.2; that for SNHY, ≤ 0.2.

On to NSTC, for which the “one-hybrid fitness for binding NBS DNA” value is ≤ 0.2. As for QTQL, the figure is ≤ 0.2; as for EMES, ≤ 0.2. As for RCIH, the figure is ≤ 0.2; as for VHFG, ≤ 0.2.

As to QMIN, the “one-hybrid fitness for binding NBS DNA” value is ≤ 0.2. Regarding KRHP, the “one-hybrid fitness for binding NBS DNA” value is ≤ 0.2. Take YKTY: the “one-hybrid fitness for binding NBS DNA” value is ≤ 0.2. As for GSDS, the figure is ≤ 0.2; as for SLEE, ≤ 0.2. As for PGYT, the figure is ≤ 0.2; as for LDIC, ≤ 0.2. The result for DVCI reads ≤ 0.2; that for FHSS, ≤ 0.2. On to LPHA, for which the “one-hybrid fitness for binding NBS DNA” value was ≤ 0.2. Turning to GGKG, the “one-hybrid fitness for binding NBS DNA” value was ≤ 0.2. As for QPDE, the figure is ≤ 0.2; as for WLDC, ≤ 0.2; as for REEI, ≤ 0.2. As to DGCC, the “one-hybrid fitness for binding NBS DNA” value was ≤ 0.2. As for QCWL, the “one-hybrid fitness for binding NBS DNA” value was ≤ 0.2.

Consider PAHI, for which the “one-hybrid fitness for binding NBS DNA” value was ≤ 0.2. VVHG: the “one-hybrid fitness for binding NBS DNA” value is ≤ 0.2. As for CYTN, the figure is ≤ 0.2; as for PQHG, ≤ 0.2. As for WSAH, the figure is ≤ 0.2; as for TCFG, ≤ 0.2.

NVNI: the “one-hybrid fitness for binding NBS DNA” value was ≤ 0.2. As for LKCC, the figure is ≤ 0.2; as for DSFT, ≤ 0.2. As for WARS, the figure is ≤ 0.2; as for PRKM, ≤ 0.2; as for SFPC, ≤ 0.2. As for VRLG, the figure is ≤ 0.2; as for APKC, ≤ 0.2.

Turning to NLKR, the “one-hybrid fitness for binding NBS DNA” value is ≤ 0.2. As for TRWR, the figure is ≤ 0.2; as for VESD, ≤ 0.2.

VFVN: the “one-hybrid fitness for binding NBS DNA” value was ≤ 0.2.

Regarding MSSN, the “one-hybrid fitness for binding NBS DNA” value was ≤ 0.2.

Regarding NPAR, the “one-hybrid fitness for binding NBS DNA” value was ≤ 0.2. As for SQVL, the figure is ≤ 0.2; as for CCSQ, ≤ 0.2.

QGNS: the “one-hybrid fitness for binding NBS DNA” value is ≤ 0.2. The result for HQTD reads ≤ 0.2; that for ECSS, ≤ 0.2. As for QIIV, the figure is ≤ 0.2. For DRYV, the “one-hybrid fitness for binding NBS DNA” value was ≤ 0.2.

In the case of PNWA, the “one-hybrid fitness for binding NBS DNA” value was ≤ 0.2. As for PDYI, the “one-hybrid fitness for binding NBS DNA” value is ≤ 0.2. The result for CETR reads ≤ 0.2. Turning to MIHW, the “one-hybrid fitness for binding NBS DNA” value is ≤ 0.2. As for INGS, the figure is ≤ 0.2; as for DEDM, ≤ 0.2; as for NMHV, ≤ 0.2.

Consider VTPT, for which the “one-hybrid fitness for binding NBS DNA” value is ≤ 0.2. With CNFS, the “one-hybrid fitness for binding NBS DNA” value is ≤ 0.2.

As for CALF, the “one-hybrid fitness for binding NBS DNA” value is ≤ 0.2. As to HLDC, the “one-hybrid fitness for binding NBS DNA” value was ≤ 0.2. As to MHHY, the “one-hybrid fitness for binding NBS DNA” value was ≤ 0.2. Consider SNAG, for which the “one-hybrid fitness for binding NBS DNA” value was ≤ 0.2. The result for WRRT reads ≤ 0.2. As for FHTG, the figure is ≤ 0.2; as for DLTR, ≤ 0.2; as for AGNY, ≤ 0.2. As for GASI, the figure is ≤ 0.2; as for TRSQ, ≤ 0.2; as for RADF, ≤ 0.2. As for LCLI, the “one-hybrid fitness for binding NBS DNA” value is ≤ 0.2.

For the variant NPTT, the “one-hybrid fitness for binding NBS DNA” value is ≤ 0.2. The result for NNRW reads ≤ 0.2; that for FDAY, ≤ 0.2.

As for DMTC, the “one-hybrid fitness for binding NBS DNA” value is ≤ 0.2.

Consider AQMF, for which the “one-hybrid fitness for binding NBS DNA” value is ≤ 0.2.

With TVYF, the “one-hybrid fitness for binding NBS DNA” value is ≤ 0.2. The result for LRKG reads ≤ 0.2. The result for SHPG reads ≤ 0.2. The result for MTRA reads ≤ 0.2. As for KLCR, the “one-hybrid fitness for binding NBS DNA” value is ≤ 0.2. As for YEYV, the figure is ≤ 0.2. Regarding RKPM, the “one-hybrid fitness for binding NBS DNA” value is ≤ 0.2. For the variant LCHR, the “one-hybrid fitness for binding NBS DNA” value is ≤ 0.2. TFRW: the “one-hybrid fitness for binding NBS DNA” value was ≤ 0.2.

With VQQM, the “one-hybrid fitness for binding NBS DNA” value is ≤ 0.2.

Regarding MEVE, the “one-hybrid fitness for binding NBS DNA” value was ≤ 0.2. Regarding KADG, the “one-hybrid fitness for binding NBS DNA” value is ≤ 0.2. Regarding PNTH, the “one-hybrid fitness for binding NBS DNA” value was ≤ 0.2. As for MMAT, the figure is ≤ 0.2; as for EARY, ≤ 0.2. The result for PRHI reads ≤ 0.2. As for SYCC, the figure is ≤ 0.2; as for MRIM, ≤ 0.2; as for AMAK, ≤ 0.2.

As to RHRS, the “one-hybrid fitness for binding NBS DNA” value is 0.585. Take VLPC: the “one-hybrid fitness for binding NBS DNA” value was ≤ 0.2. RMEY: the “one-hybrid fitness for binding NBS DNA” value was ≤ 0.2. The result for REAR reads ≤ 0.2. Turning to HPHV, the “one-hybrid fitness for binding NBS DNA” value was ≤ 0.2. As to KSLY, the “one-hybrid fitness for binding NBS DNA” value is ≤ 0.2.

Consider PIYL, for which the “one-hybrid fitness for binding NBS DNA” value was ≤ 0.2. The result for YAFS reads ≤ 0.2; that for ISPH, ≤ 0.2.

As to VPTL, the “one-hybrid fitness for binding NBS DNA” value was ≤ 0.2. For the variant PSYK, the “one-hybrid fitness for binding NBS DNA” value was ≤ 0.2. In the case of KAVL, the “one-hybrid fitness for binding NBS DNA” value was ≤ 0.2. As for HVKS, the figure is ≤ 0.2.

In the case of LWMS, the “one-hybrid fitness for binding NBS DNA” value was ≤ 0.2. Take VPSC: the “one-hybrid fitness for binding NBS DNA” value was ≤ 0.2.

IHPY: the “one-hybrid fitness for binding NBS DNA” value was ≤ 0.2.

Consider CLFD, for which the “one-hybrid fitness for binding NBS DNA” value was ≤ 0.2. The result for RGKE reads ≤ 0.2.

With WYTG, the “one-hybrid fitness for binding NBS DNA” value was ≤ 0.2. As for RESE, the figure is ≤ 0.2; as for HEWR, ≤ 0.2.

With HDCR, the “one-hybrid fitness for binding NBS DNA” value was ≤ 0.2. The result for HSQF reads ≤ 0.2; that for GAAG, ≤ 0.2; that for LWIV, ≤ 0.2.

For MHRT, the “one-hybrid fitness for binding NBS DNA” value was ≤ 0.2. As for SRMQ, the figure is ≤ 0.2; as for GEVY, ≤ 0.2.

Consider CVPT, for which the “one-hybrid fitness for binding NBS DNA” value is ≤ 0.2.

Regarding LIIV, the “one-hybrid fitness for binding NBS DNA” value is ≤ 0.2. As for GVHP, the figure is ≤ 0.2; as for MNSE, ≤ 0.2. On to WRER, for which the “one-hybrid fitness for binding NBS DNA” value was ≤ 0.2. As for GFIR, the figure is ≤ 0.2; as for RPHM, ≤ 0.2. Turning to PDCR, the “one-hybrid fitness for binding NBS DNA” value was ≤ 0.2. As for EDAS, the “one-hybrid fitness for binding NBS DNA” value is ≤ 0.2. The result for SRHY reads ≤ 0.2; that for RRVE, ≤ 0.2.
